# Some of the results follow. The energies were worked out here from pooled read counts, against the library average; single values are noisy.
# Target: T1, Pho4 (S. cerevisiae) (UniProt P07270)
# T1 sequence: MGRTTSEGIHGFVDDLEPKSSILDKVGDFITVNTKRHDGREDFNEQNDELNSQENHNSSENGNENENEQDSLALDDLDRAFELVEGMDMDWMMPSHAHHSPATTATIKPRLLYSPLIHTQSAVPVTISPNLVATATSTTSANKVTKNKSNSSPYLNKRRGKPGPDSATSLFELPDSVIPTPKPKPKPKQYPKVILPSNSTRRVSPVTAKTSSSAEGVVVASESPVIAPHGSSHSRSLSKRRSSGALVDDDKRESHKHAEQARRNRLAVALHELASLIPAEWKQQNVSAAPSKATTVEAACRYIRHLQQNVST
# Assay: relative binding free energy (BET-seq); higher = weaker binding
# Details: reference: library average
row,Sequence,relative binding free energy [kcal/mol]
1,TTGCTCACGTGTATGG,0.23
2,ATGTGCACGTGATTTC,0.2
3,TTTTTCACGTGGTCCG,0.21
4,TCGAACACGTGGGTGG,-0.16
5,TTGTACACGTGCGGAG,0
6,TTAGGCACGTGGGTAG,-0.12
7,TTATGCACGTGACGCG,0.05
8,TGTAGCACGTGTGGCT,0.03
9,GGGGGCACGTGTTATT,-0.04
10,GGATTCACGTGTAGGA,0.31
11,GGTTTCACGTGGATAG,0.34
12,TTGTTCACGTGTCTAA,0.17
13,TAGGTCACGTGGATTC,0.18
14,CGGGTCACGTGAGTGC,0.3
15,ACTTGCACGTGGTAGT,-0.24
16,TTTTTCACGTGTAGAG,0.22
17,TTGGCCACGTGGGTCG,-0.23
18,CGTCACACGTGTTGGT,-0.01
19,ATTGACACGTGGTGCT,-0.19
20,CGTTGCACGTGTTTCT,0.03
21,TATGTCACGTGGAAGG,0.05
22,TATCTCACGTGAGGGA,0.5
23,CGGGTCACGTGTTTAG,0.16
24,GGTTCCACGTGGAGTA,0.13
25,TAGAGCACGTGTCTGT,0.02

row,Sequence,relative binding free energy [kcal/mol]
1,GGTTACACGTGTGGTA,0.27
2,TTAAACACGTGTGGCG,0
3,GTCGTCACGTGGGTAG,0
4,TAGGGCACGTGCAAGT,-0.17
5,TACAGCACGTGGGGGT,-0.29
6,GTCGTCACGTGTAGCG,0.13
7,GCGGGCACGTGGGTAT,-0.3
8,TTTGCCACGTGTCGGG,-0.19
9,GAGGGCACGTGCGTGG,-0.16
10,ATGTACACGTGGTGGC,0.1
11,GTGGACACGTGATATT,0.17
12,ATTGGCACGTGTTTGC,-0.11
13,GTTTACACGTGTGGAT,0.16
14,GGGGGCACGTGGGTGG,-0.11
15,TTGTGCACGTGTTCAA,0.02
16,AGATGCACGTGTGATG,0.11
17,AAAGTCACGTGCAGTT,0.24
18,TAAAGCACGTGGTCTT,-0.17
19,CGCTGCACGTGGCGGG,-0.27
20,GGTGTCACGTGAGTAA,0.23
21,AGTTTCACGTGCGAGC,0.42
22,AGCGACACGTGGGGGT,-0.2
23,ATTTTCACGTGGATTT,0.31
24,ACATGCACGTGTTGGA,0
25,TCTTTCACGTGGGAAG,0.13

row,Sequence,relative binding free energy [kcal/mol]
1,TGTTTCACGTGTGGCT,0.28
2,TGATGCACGTGACTTG,0.04
3,GTTGGCACGTGGCTGA,-0.18
4,TGAGACACGTGGATTA,0.12
5,CATAGCACGTGGTGAG,-0.11
6,TGTCACACGTGTTGTC,0.05
7,GGATCCACGTGATGGT,0.11
8,GATAACACGTGGGGAT,-0.15
9,TAGAACACGTGGTATT,-0.05
10,AATATCACGTGCGGTT,0.23
11,TTAATCACGTGGTATT,0.07
12,AAGGACACGTGTTGTG,0.09
13,AAGCTCACGTGAGTTG,0.44
14,GTTAACACGTGTAGTC,0.25
15,TGCGACACGTGGATGT,0.08
16,GCTCGCACGTGGTTTG,-0.1
17,AGCTACACGTGGGGTA,-0.09
18,TGAGGCACGTGTCTGA,0.06
19,GGGGCCACGTGAGCGG,0.11
20,GGTGACACGTGTTATA,0.03
21,GTGAGCACGTGGGGCG,-0.19
22,GTAATCACGTGTGGGA,0.26
23,ATATGCACGTGTCCGG,0.05
24,TGGGACACGTGTGTAT,0.01
25,TTGTTCACGTGTGCGA,0.29

row,Sequence,relative binding free energy [kcal/mol]
1,TTGTGCACGTGTTCGT,-0.17
2,TTATACACGTGAATAT,0.26
3,GGAATCACGTGTTTTA,0.06
4,TATGGCACGTGTCATG,0.03
5,ATGAACACGTGCGGGG,0.05
6,AGTGTCACGTGAAGGT,0.17
7,AGTCTCACGTGTGGTA,0.31
8,GGTATCACGTGAGCTT,0.38
9,ACAGGCACGTGTGTTT,-0.26
10,GTGATCACGTGTTGGC,0.09
11,GTGTACACGTGTTCGG,0.03
12,ATAGTCACGTGTAGGT,0.08
13,TTGTGCACGTGAGGTG,0.32
14,TATAACACGTGTTCTG,-0.05
15,TGTGTCACGTGAAGCT,0.26
16,AGGATCACGTGTCAGT,0.25
17,TGTTACACGTGATCGT,0.11
18,GTCAGCACGTGGAGGT,-0.06
19,GGAGTCACGTGATGAA,0.29
20,ATATTCACGTGGTCTG,0.15
21,CAGGTCACGTGATGGA,0.38
22,TGGTACACGTGTTGGT,0.09
23,AATTGCACGTGTTATA,-0.05
24,GACTTCACGTGATGTG,0.39
25,TGGGGCACGTGCATGT,-0.19

row,Sequence,relative binding free energy [kcal/mol]
1,GATTACACGTGTTTAA,0.17
2,GGAGGCACGTGGTATC,-0.19
3,TAGAGCACGTGGAATT,0.14
4,TGGACCACGTGAGTGT,0.22
5,ATGTACACGTGCTTGG,-0.08
6,CTTTTCACGTGATGTT,0.28
7,GAGATCACGTGGGTGG,0.06
8,TTTTACACGTGTAGAT,0.23
9,TGTGCCACGTGTAGCG,0
10,TTATTCACGTGAGTCA,0.44
11,TGTAGCACGTGTGCTA,-0.15
12,GAGCTCACGTGAGTGG,0.35
13,AGCTACACGTGGTAGG,0.08
14,TTGGACACGTGTGTGT,0.13
15,ACAGGCACGTGGCGGT,-0.27
16,AGGGACACGTGGTTAG,-0.07
17,AGGGACACGTGGTAAA,0.09
18,TTTAGCACGTGGGACT,-0.13
19,AGGGGCACGTGGTAAT,-0.04
20,ATAGGCACGTGGTTGC,-0.21
21,GTGGTCACGTGGCTAG,0.05
22,GGGTGCACGTGCTGAT,0
23,TATAACACGTGTGGAG,-0.01
24,TATGTCACGTGTCTGT,0.18
25,AAGGTCACGTGGCGGC,0.14

row,Sequence,relative binding free energy [kcal/mol]
1,GTAGGCACGTGGCCTT,-0.07
2,ATTGACACGTGTTATT,0.02
3,GTCGACACGTGGAGTG,-0.01
4,AAAGGCACGTGGGAGA,-0.08
5,TTGGCCACGTGTAGTT,-0.03
6,GGTCTCACGTGGAATT,0.39
7,GTTAGCACGTGGGCTT,-0.11
8,TTGTTCACGTGGACGG,0.28
9,GGGTGCACGTGGGGTA,-0.12
10,TGGCGCACGTGTTAAT,-0.02
11,TCTATCACGTGTTCGT,0.07
12,GGGTTCACGTGGGCCA,0.23
13,GTTTGCACGTGTAAAT,0.25
14,TGGAGCACGTGAGGAA,0.23
15,ATTCTCACGTGTGATT,0.23
16,GGAATCACGTGGTTTT,0.22
17,TTTGTCACGTGGGCGC,0.01
18,TTATCCACGTGTGATT,0.11
19,TAGTTCACGTGAGGTA,0.29
20,ATAGGCACGTGTTGGT,-0.09
21,GAGGGCACGTGAATTT,0.17

# — the BET-seq Pho4 binding data (Le et al. 2018)
